From PubChem BioAssay AID488969 (Vanderbilt High Throughput Screening Facility, 2010) come the findings set out here.

In all, about 110,000 compounds were measured (“z-score”: median about -0.1, highest 2% from about 2 on). This is one part of the list.

In the test the target is Metabotropic glutamate receptor 8 (Rattus norvegicus) (UniProt P70579). Kind of test: rat mGluR8 modulators via GIRK flux, primary screen, cell-based, thallium flux, HTS (AID 488969). As to conditions: HEK293 rat mGluR8, GIRK (G protein-gated inwardly rectifying potassium channel) thallium flux, FluoZin2; at 10 µM; stronger effect = higher value; submaximal glutamate (EC20) added with thallium.
Chain of UniProt P70579 (P70579 whole entry, looked up): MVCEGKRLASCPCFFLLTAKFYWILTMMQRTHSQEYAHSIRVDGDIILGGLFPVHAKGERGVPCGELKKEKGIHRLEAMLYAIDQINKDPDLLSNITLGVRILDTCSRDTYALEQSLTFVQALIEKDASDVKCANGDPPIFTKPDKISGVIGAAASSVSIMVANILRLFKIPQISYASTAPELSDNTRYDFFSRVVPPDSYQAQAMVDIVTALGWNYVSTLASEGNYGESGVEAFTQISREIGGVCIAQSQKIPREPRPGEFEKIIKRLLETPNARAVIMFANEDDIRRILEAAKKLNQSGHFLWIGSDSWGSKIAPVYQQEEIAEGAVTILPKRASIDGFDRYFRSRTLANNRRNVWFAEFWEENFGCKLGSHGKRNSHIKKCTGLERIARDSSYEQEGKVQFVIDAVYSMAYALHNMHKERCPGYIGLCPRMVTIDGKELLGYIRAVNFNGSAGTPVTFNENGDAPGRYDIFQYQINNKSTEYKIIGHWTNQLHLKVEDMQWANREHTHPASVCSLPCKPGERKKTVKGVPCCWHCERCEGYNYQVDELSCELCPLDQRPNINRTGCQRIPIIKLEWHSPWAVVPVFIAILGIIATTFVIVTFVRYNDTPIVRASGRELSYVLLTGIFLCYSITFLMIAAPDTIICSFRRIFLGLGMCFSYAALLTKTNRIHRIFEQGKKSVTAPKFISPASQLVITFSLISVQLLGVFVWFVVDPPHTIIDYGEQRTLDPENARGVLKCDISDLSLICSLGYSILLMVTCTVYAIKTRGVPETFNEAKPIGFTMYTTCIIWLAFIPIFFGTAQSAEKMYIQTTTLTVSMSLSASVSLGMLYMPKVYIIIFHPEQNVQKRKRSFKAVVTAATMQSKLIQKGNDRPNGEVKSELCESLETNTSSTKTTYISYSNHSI
`O=C(NCCc1nc2ccccc2[nH]1)c1ccc(F)cc1` gave a z-score of 0.297.

`Cc1ccc(N2CCN(C(=S)c3ccc(N(C)C)cc3)CC2)cc1` had a z-score of 0.175.

On to `CN=C(Nc1cc(C)nn1CCC#N)c1ccccc1`, for which the z-score turned out to be 1.23.

`COc1ccc(OCC(=O)OCC(=O)Nc2ccc(S(=O)(=O)N3CCCCC3)cc2)cc1` showed a z-score of -0.684.

For the compound `Cc1cc(C)cc(NC(=O)CN2CCN(c3ncccn3)CC2)c1`, the z-score is -0.465.

Compound `C/C(CC1(O)C(=O)Nc2ccccc21)=N\O` (configuration not stated) returned a z-score of -1.49.

`COc1ccc(Cn2cc(F)c(=O)n(CCC(C)C)c2=O)cc1[N+](=O)[O-]` had a z-score of 0.118.

As to `Cc1ccc(C(=O)COC(=O)c2ccc(-c3cnc4ccccc4n3)cc2)cc1C`, the z-score is -0.0949.

As to `CC(=O)c1ccc(OCC(O)CN2CCN(CC(O)COc3ccc(C(C)=O)cc3)CC2)cc1` (configuration not stated), the z-score is 0.453.

Compound `Cc1cc(C)n(C(C)n2nc(C)cc2C)n1` gave a z-score of 0.681.

Consider `CN(C)CCSc1nc(N)c2c3c(sc2n1)COC(C)(C)C3`, for which the z-score amounted to 0.731.

The compound `Cc1ccc2nc(C)cc(C(=O)OCC(=O)c3ccc(Cl)c([N+](=O)[O-])c3)c2c1` yielded a z-score of -0.503.

Compound `N#Cc1cc(S(=O)(=O)c2ccccc2)c(N)[nH]c1=O` had a z-score of 0.026.

`CCOC(=O)c1c(C)n(CCNC(C)=O)c2ccc(OC)cc12` showed a z-score of 0.105.

`CC(C)(C)c1ccc(C(=O)NCC(=O)OCN2C(=O)c3ccccc3C2=O)cc1` registered a z-score of -0.892.

With `O=C(O)c1cc(-c2ccc(N3CCOCC3)cc2)nn1-c1ccc(F)cc1`, the z-score was -0.497.

In turn, `Cn1cc(-c2nnc(-c3ccccc3)o2)c2ccccc21` came in with a z-score of 0.11.

`O=C(CSc1nnc(-c2ccc(OC(F)F)cc2)o1)NC(=O)NCc1ccco1` registered a z-score of -0.253.

In turn, `O=C(CN(Cc1cccs1)C(=O)CSc1nnc(COc2ccccc2)o1)NC1CCCC1` had a z-score of 0.0368.

Compound `CCN1CCN(S(=O)(=O)c2ccc3c(c2)OCCO3)CC1` gave a z-score of 0.28.

The compound `COCCn1c(CN2CCN(c3ccc(OC)cc3)CC2)nc2c1c(=O)n(C)c(=O)n2C` yielded a z-score of -0.219.

For the compound `O=C1C2CC=CCC2C(=O)N1Cc1ccccc1Cl` (configuration not stated), the z-score is -0.35.

`CCOC(=O)C1=C(C)N=c2s/c(=C\c3cc(OC)c(OC)c(OC)c3)c(=O)n2C1/C=C/c1ccccc1` (configuration not stated): the z-score is -0.0634.

On to `CC1CC1c1ccc(/C=C(\C#N)C(=O)Nc2ccc(Cl)cc2)o1` (configuration not stated), for which the z-score was -0.332.

As to `O=C(O)CCC(=O)N1CCc2cc(S(=O)(=O)N3CC=C(c4ccccc4)CC3)ccc21`, the z-score is -0.389.

`CC(NC(=O)c1cccs1)c1ccc2c(c1)OCO2` (configuration not stated) yielded a z-score of -0.00444.

As to `CCOC(=O)COc1c(OC)cc(Cl)cc1C1Nc2ccccc2C(=O)N1c1ccc(F)cc1` (configuration not stated), the z-score worked out at 0.0906.

As for `CCCCNC(=O)c1onc(CSc2ccccc2C)c1C(=O)O`, the z-score is 0.0157.

The compound `COc1cccc(-n2nc(-c3ccnn3-c3ccccc3)c(=O)n(C)c2=O)c1` displayed a z-score of -0.22.

In turn, `Cn1c(=O)cc(SCC(=O)NCc2cccnc2)c2ccccc21` came in with a z-score of -0.245.

The compound `O=C(COC(=O)CCc1ccc(S(=O)(=O)N2CCCCC2)cc1)Nc1cccc2ccccc12` showed a z-score of 0.0206.

With `CC(=O)N1CC(c2ccccc2)C(c2ccc(Cl)cc2)=N1` (configuration not stated), the z-score is -0.485.

Regarding `O=C(Nc1ccccc1)c1cc2ccccc2o1`, the z-score was -0.224.

In the case of `CC1CCN(C(=O)c2ccc(SCc3ccccc3F)c([N+](=O)[O-])c2)CC1`, the z-score was -0.84.

On to `COc1ccc(NC(=O)c2cc(OC)c(OC)c(OC)c2Br)cc1OC`, for which the z-score is -0.423.

Turning to `NC(=O)Cc1ccc(Nc2nnc(-c3ccc(O)cc3)c3ccccc23)cc1`, the z-score is 0.207.

With `C#CCn1c(=NC(=O)c2ccccc2[N+](=O)[O-])sc2cc(S(C)(=O)=O)ccc21`, the z-score was -0.119.

In the case of `C/C(=N\NC(=O)c1nn(C)cc1Br)c1cccc(NC(=O)c2ccncc2)c1`, the z-score is -0.176.

Take `O=C(CCN1C(=O)C2C3CCC(C3)C2C1=O)OCC(=O)c1cccc([N+](=O)[O-])c1` (configuration not stated): the z-score is -0.207.

As to `COc1ccc(CCSc2nnc(C3CCCCC3)n2N)cc1`, the z-score came out at 0.27.

`CN(C)N1C(=O)CC(NNC(=O)c2ccncc2)C1=O` (configuration not stated) showed a z-score of -0.284.

Consider `CCC(=O)N(Cc1cc(=O)[nH]c2ccccc12)c1cccc(C)c1`, for which the z-score is -0.236.

As to `Cc1nnc2ccc(N3CCCC3)nn12`, the z-score amounted to 0.216.

In the case of `Cc1cccc(NC(=S)NCc2ccncc2)c1C`, the z-score is 0.279.

`O=C(COC(=O)c1ccccc1C(=O)c1ccc(Cl)c([N+](=O)[O-])c1)NC1CCCCCC1` had a z-score of 0.341.

On to `COc1cc(C)c(NC(=S)Nc2ccc(Cl)c(Cl)c2)cc1OC`, for which the z-score is 0.396.

Compound `COc1cccc(N/C(SCc2ccccc2C)=C(/C#N)C(=O)NCc2cccs2)c1` displayed a z-score of 0.0519.

As to `CCCCN1C(=O)C2(NNc3ccccc3O2)c2ccccc21` (configuration not stated), the z-score was -0.39.

Compound `Cc1ccc(SCCNS(C)(=O)=O)cc1` came in with a z-score of -0.065.

`CCOC(=O)N1CCN(c2c(NCc3cccs3)c(=O)c2=O)CC1` had a z-score of 0.0406.

In turn, `COc1ccc(C(=O)Nc2ccccc2C(=O)NC(Cc2ccc(O)cc2)C(=O)NNC(=O)c2ccccc2Cl)cc1` (configuration not stated) showed a z-score of 0.251.

`COc1cc(NC(=O)c2cc([N+](=O)[O-])ccc2Br)ccc1NC(=O)c1ccco1` showed a z-score of -0.624.

In turn, `COc1cccc(N(C(=O)Cn2nnc(-c3ccc(C)cc3)n2)C(C(=O)NC(C)(C)C)c2c[nH]c3ccccc23)c1` (configuration not stated) registered a z-score of -0.0351.

Take `O=C(O)c1cccc(Cn2c(Cl)c(/C=N/NC(=O)c3ccccc3)sc2=O)c1`: the z-score was -0.0615.

Regarding `Cc1ccc(C)c(Nc2ccc(C(=O)NCCc3ccccc3)cn2)c1`, the z-score was -0.78.

For the compound `COC(=O)c1ccc(/C=C/c2ccc3cccc(OC(C)=O)c3n2)cc1`, the z-score was determined as 0.152.

Compound `Cc1cc(=O)oc(C)c1C(=O)N1CCCc2ccccc21` showed a z-score of -0.0623.

The compound `Cc1cc(NC(=O)COc2ccc3oc4ccccc4c3c2)no1` returned a z-score of -0.195.

As for `CCOC(=O)c1c(C)[nH]c(C(=O)/C(C#N)=C/c2ccc(OCC)cc2)c1C`, the z-score was 0.023.

Compound `CC(C)OC(=O)CSc1nc2ncccc2[nH]1` came in with a z-score of -0.0946.

Compound `CCOC(=O)C(NC(=O)CC)(Nc1sc2c(c1C(=O)OC)CCN(C)C2)C(F)(F)F` (configuration not stated) returned a z-score of 0.476.

The compound `COc1ccccc1OCCCOc1c(C)cc(C)cc1Br` gave a z-score of -0.185.

For the compound `Cc1cc2nc(-c3ccco3)cc(C(F)(F)F)n2n1`, the z-score was found to be 0.0437.

Take `O=C(Nc1ncc(Cc2ccccc2Cl)s1)c1ccc([N+](=O)[O-])cc1`: the z-score was -0.264.

`COC(=O)c1ccc(/C=C(\C#N)C(=O)NC(C)c2ccccc2)cc1` (configuration not stated) registered a z-score of -0.166.

For the compound `O=C(NCCCN1CCOCC1)c1ccc(CS(=O)(=O)c2cccc(C(F)(F)F)c2)o1`, the z-score amounted to 0.918.

`CCN(CC)c1cc2nc(C)n(Cc3ccccc3)c(=O)c2cc1NC(=O)C1CC1` came in with a z-score of -2.33.

`COc1ccccc1NC(=O)Cc1coc2cc(C)ccc12` came in with a z-score of -0.0264.

As to `CCOC(=O)c1c(NC(=O)OC)sc(C(=O)N(CC)CC)c1C`, the z-score was -0.0155.

For `Cc1cc(-c2ccccc2)nc(N2CCC(C(=O)NCc3ccccc3Cl)CC2)n1`, the z-score is -1.39.

`Cc1cccc(NS(=O)(=O)c2cccs2)n1` came in with a z-score of 0.268.

Turning to `CCC(C)NS(=O)(=O)c1ccc(S(=O)(=O)N2CCCC3(CCCCC3)C2)cc1` (configuration not stated), the z-score is 0.176.

With `O=C(Oc1cncc(Cl)c1)c1ccco1`, the z-score is -0.00701.

Compound `Cc1cccc(OCc2nc(-c3cccnc3)no2)c1` came in with a z-score of -0.172.

Turning to `CCOC(=O)C1(C)/C(=N/Nc2ccccc2)C(=O)C(=O)N1c1ccccc1` (configuration not stated), the z-score is -0.468.

Turning to `Clc1ccc(-c2cn3nc4c(nc3n2)CCCC4)cc1`, the z-score turned out to be 0.182.

As to `CCCNC(=O)c1cc(-c2ccco2)on1`, the z-score turned out to be 0.696.

`CCOC(=O)CNS(=O)(=O)c1cc(-c2nnc(Nc3ccc4c(c3)OCO4)c3ccccc23)ccc1C` came in with a z-score of -0.622.

`COc1ccc(-c2csc(NC(=O)c3nc(-c4ccccc4)oc3C)n2)cc1`: the z-score was 0.528.

In turn, `Cc1ccc(C(=O)OCC(=O)NCCC2=CCCCC2)s1` showed a z-score of -0.3.

`CCCc1cc(=O)oc2cc(OCc3cccc(OC)c3)c(Cl)cc12` displayed a z-score of 0.508.

`COc1ccc(CCNS(=O)(=O)c2ccc3oc(C(=O)O)c(C)c3c2)cc1OC` gave a z-score of -0.553.

Compound `O=C(CN1C(=O)c2ccccc2S1(=O)=O)Nc1cccnc1` yielded a z-score of 0.056.

Compound `CC(C)CNc1nnnc2c1sc1nc(N3CCOCC3)c3c(c12)CC(C)(C)SC3` yielded a z-score of -0.392.

In turn, `Cc1nc(SCC(=O)c2cc3ccccc3oc2=O)c(C#N)c(-c2ccccc2)c1C(=O)Nc1ccccc1` showed a z-score of -0.305.

With `CCOc1ccc(NC(=O)C2CCCN(S(=O)(=O)c3cccc4nsnc34)C2)cc1` (configuration not stated), the z-score is 0.0833.

Consider `Cc1ccc([N+](=O)[O-])cc1N=C(c1ccc([N+](=O)[O-])cc1)N1CCOCC1`, for which the z-score was -0.237.

`CCN=C1SC(CC(=O)NC(C)C)C(=O)N1CC` (configuration not stated) had a z-score of -0.0724.

In the case of `N#C/C(=C/c1ccc(F)cc1)c1nc(CCN2C(=O)c3ccccc3C2=O)cs1`, the z-score stood at 0.281.

`Cc1cccc2c(=O)c(C(=O)NCc3cccs3)c[nH]c12`: the z-score was -0.208.

In turn, `CCOC(=O)c1cnc(SCC(=O)Nc2ccccc2C(=O)OC)nc1N` gave a z-score of -2.55.

As for `COC(=O)c1cc2c(ccn2-c2ccc(F)cc2)n1Cc1cccc(OC)c1`, the z-score is -0.401.

With `COc1ccccc1N(CN1CCCC1=O)C(=O)c1ccccc1F`, the z-score was -0.699.

Take `CSc1nc2c(c(=O)n1C)SC(C)C2` (configuration not stated): the z-score was -0.144.

Consider `O=C(c1ccco1)N1CCN(C(=O)c2cccc3c2C(=O)N(Cc2cccnc2)C3)CC1`, for which the z-score is -0.521.

Compound `Cc1ccc(OCC(=O)NCCN2CCCC2)cc1` displayed a z-score of -0.165.

As to `COc1ccc(-c2c3c(=O)n(C)c(=O)n(C)c3cn2Cc2ccccn2)cc1`, the z-score is 0.696.

Compound `CCn1c(C(C#N)/C(=N\S(=O)(=O)c2cccs2)c2ccccc2)nc2ccccc21` (configuration not stated) showed a z-score of 0.0631.

As to `COc1cc(C(=O)OCC(=O)Nc2ccc(C(C)=O)cc2)ccc1OCC(=O)N1CCOCC1`, the z-score is -0.145.

Regarding `CCOc1ccc(NC(=O)NCCCSC2CCCCC2)cc1`, the z-score is 0.197.

Regarding `CCC(=O)Nc1ccc(/C(C)=N\NS(=O)(=O)c2ccc(C)cc2)cc1`, the z-score is -0.00673.

The compound `Cc1ccc(C(=O)COC(=O)c2cnccn2)cc1` registered a z-score of 1.02.

For `CCC1(CC)Nc2ccccc2C(=O)N1c1ccc(NC(C)=O)cc1`, the z-score was -0.149.

In turn, `O=C(CCN1CCCCC1)c1ccc2c(c1)OCO2` showed a z-score of 0.101.

Regarding `O=c1[nH]c(CN2CCN(Cc3ccc4c(c3)OCO4)CC2)nc2ccccc12`, the z-score was -0.226.

The compound `CCC(C)(C)C1CCC2(CC1)NC(=O)N(CC(=O)Nc1nc(-c3ccc(C)cc3)cs1)C2=O` (configuration not stated) gave a z-score of 0.0182.

`Clc1ccc(OCc2cc(-c3ccccc3)no2)c(Cl)c1`: the z-score was -0.0969.
